# Reference: PubChem BioAssay AID504832 (National Center for Advancing Translational Sciences (NCATS), 2011)
# The whole screen tested about 310,000 compounds, of which about 18,000 (5.8%) were called active. This list was built around the results that the source calls inconclusive (neither active nor inactive); the mix of calls is not that of the screen. Calls follow the shape of the dose curve; as a rule, active = well fitted inhibition curve with a large enough effect; inconclusive = small, poorly fitted or top-dose-only effect, or another doubt; inactive = no such curve, though single readings can be large or run the other way. No potency is given beside an inconclusive call; the fits are too rough.
# Assay: Primary qHTS for delayed death inhibitors of the malarial parasite plastid, 48 hour incubation
# Details: P. falciparum luciferase growth in erythrocytes; series mostly up to 28.7 µM
# Method in brief: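 Growth was read as firefly luciferase luminescence after a 48 h, 37 C, 5% CO2 exposure of compounds to reporter-bearing P. falciparum cultures (0.1% parasitemia, 2% hematocrit final) in Albumax-supplemented RPMI 1640.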
# Potency is read from the fitted curve at half-maximal effect; tags tell the direction and shape of the fitted curve.
row,SMILES,Potency
1,c1ccc(-c2oc3ncnc(NCCCN4CCOCC4)c3c2-c2ccccc2)cc1,"inconclusive [inhibitor, partial curve]"
2,Cc1sc(NC(=O)C2C3CCC(O3)C2C(=O)O)nc1-c1ccc(CC(C)C)cc1 (stereo unspecified),inactive
3,CCCOc1ccc(C2C(C(=O)c3ccco3)=C(O)C(=O)N2CCN2CCOCC2)cc1OC (stereo unspecified),inactive
4,COc1ccc(NC(=O)CSc2nc3ccc(Nc4nc(N5CCOCC5)nc(N5CCOCC5)n4)cc3s2)cc1,"inconclusive [inhibitor, partial curve]"
5,Cc1ccccc1C(=O)NC(=S)Nc1ccccc1[N+](=O)[O-],inactive
6,O=C(NCCCO)c1ccc2nc(-c3ccco3)c(-c3ccco3)nc2c1,inactive
7,NC(N)=NS(=O)(=O)c1ccc(NC(=S)NC(=O)/C=C/c2ccco2)cc1,inactive
8,COc1ccc(Nc2nc(N3CCN(C)CC3)nc3ccccc23)c(OC)c1,"inconclusive [inhibitor, single point]"
9,CCOc1ccc(C(O)C(CN2CCOCC2)c2ccccc2)cc1 (stereo unspecified),"inconclusive [inhibitor, single point]"
10,CCC(C)NC(=O)c1ccccc1NC(=O)/C(=C/c1ccc(OC)cc1)c1ccccc1 (stereo unspecified),"inconclusive [inhibitor, single point]"
11,Cc1ccc2nc(SCC(=O)NNC(=O)c3ccccc3)[nH]c2c1,inactive
12,CN(C)S(=O)(=O)c1ccc2c(c1)nc(CCC(=O)Nc1ccc3c(c1)OCO3)n2C,"inconclusive [inhibitor, single point]"
13,Cc1ccc(C(=O)NCC(=O)N(C)Cc2ccc(Cl)cc2Cl)s1,"inconclusive [inhibitor, single point]"
14,COc1cccc(C2c3c(-c4ccccc4O)n[nH]c3C(=O)N2Cc2ccco2)c1 (stereo unspecified),"inconclusive [inhibitor, partial curve]"
15,O=C1CCCCC/C1=N/Nc1ccc(OCc2ccccc2)cc1,inactive
16,COc1ccc(N=Nc2c(C)[nH][nH]c2=O)cc1,inactive
17,CCOC(=O)c1c(-c2ccc(F)cc2)csc1/N=C/N(C)C,"inconclusive [inhibitor, full curve, poor fit]"
18,CCOc1cc(NC(=O)c2ccccn2)c(OCC)cc1NC(=O)c1ccc(OC)cc1,"inconclusive [inhibitor, single point]"
19,CC(OC(=O)/C=C/c1cccc(C(F)(F)F)c1)C(=O)NC1CCCCC1C (stereo unspecified),"inconclusive [inhibitor, single point]"
20,C/C=C/C=C\C(=O)Nc1cccc(C2=NOC3(C2)C[C@@H](C(N)=O)N(C(=O)c2cc([N+](=O)[O-])cc([N+](=O)[O-])c2C)C3)c1 (stereo partly specified),"inconclusive [inhibitor, single point]"
21,Cc1ccccc1C(=O)Nc1ccccc1C(=O)N/N=C\c1ccco1,inactive
22,Cc1cccc(Nc2nnc(SCC3CCCCO3)s2)c1 (stereo unspecified),inactive
23,Cc1nc2ccccc2c(=O)n1/N=C/c1ccco1,inactive
24,COP(=O)(c1ccc(N(C)C)cc1)C(O)c1ccccc1 (stereo unspecified),"inconclusive [inhibitor, single point]"

row,SMILES,Potency
1,CCC1CCCCN1CC(O)COCc1cccc(OC)c1 (stereo unspecified),"inconclusive [inhibitor, partial curve, poor fit]"
2,CCC(C)(C)n1nnnc1C(c1cc2cc(OC)ccc2[nH]c1=O)N1CCc2ccccc21 (stereo unspecified),active: 10.4 µM
3,Cc1cc(C)cc(NC(=S)NN)c1,"inconclusive [inhibitor, single point]"
4,C=CCN1C(=O)c2ccc(C(=O)N(CCC)CC(=O)Nc3ccccc3C)cc2C1=O,inactive
5,CCN(CC(=O)NCc1ccc(F)cc1)CC(=O)Nc1ccc(S(=O)(=O)N2CCCC2)cc1,"inconclusive [inhibitor, partial curve, poor fit]"
6,Cc1nc2ccc(S(=O)(=O)NCC(=O)NCc3ccc4c(c3)OCO4)cc2s1,"inconclusive [inhibitor, partial curve, poor fit]"
7,Cc1csc(CNc2ncnc3ccc(-c4ccccc4Cl)cc23)c1,active: 9.28 µM
8,COCCCNc1nc(-c2ccncc2)nc2ccccc12,"inconclusive [inhibitor, full curve, poor fit]"
9,COc1cccc(-c2ccc(NC(=O)C3CCCN(Cc4cnc(C)s4)C3)cc2)c1 (stereo unspecified),"inconclusive [inhibitor, single point]"
10,CCOC(=O)c1c(N)n(CCN2CCCCC2)c2nc3ccccc3nc12,"inconclusive [inhibitor, single point]"
11,COc1cc(-c2nnc3sc(Cc4ccccc4)nn23)cc(OC)c1OC,"inconclusive [inhibitor, partial curve, poor fit]"
12,Cc1cccc(C)c1NC(=S)N(Cc1cccnc1)Cc1ccccc1Cl,"inconclusive [inhibitor, partial curve, poor fit]"
13,CN(CC(=O)Nc1ccc(OC(F)(F)F)cc1)C(=O)Cc1c(Cl)cccc1Cl,"inconclusive [inhibitor, single point]"
14,CCCCCN(C(=O)CCC(=O)OCC(=O)c1cccc(OC)c1)c1c(N)n(CCCC)c(=O)[nH]c1=O,inactive
15,CSC[C@H](NC(=O)COc1cc2c(c3oc(=O)cc(C)c13)CCC(C)(C)O2)C(=O)O,inactive
16,C=C(C)Cn1c(NCCC)nc2c1c(=O)n(C)c(=O)n2C,inactive
17,COC(CNC(=O)c1c[nH]c2ccc(S(=O)(=O)N(C)c3ccc(F)cc3)cc2c1=O)OC,"inconclusive [inhibitor, single point]"
18,CCC1c2ccc(C)n2CCN1C(=O)Nc1ccccc1C(=O)OC (stereo unspecified),active: 5.22 µM
19,CCN=c1scc(C)n1/N=C/c1cc(Br)c(O)c(Br)c1,"inconclusive [inhibitor, partial curve]"
20,CNCC(O)C(O)C(O)C(O)CO (stereo unspecified),inactive
21,O=C(CCc1nnc(-c2ccccc2)o1)NCc1c(F)cccc1F,inactive
22,C=CCSc1nc2sc(C)c(C)c2c(=O)n1CC=C,"inconclusive [inhibitor, single point]"
23,COc1ccc(C2=NN(c3ccccc3)C(c3cccs3)C2)cc1 (stereo unspecified),"inconclusive [inhibitor, single point]"
24,OC(CNC1CCCC1)COc1ccc(-c2ccccc2)cc1 (stereo unspecified),"inconclusive [inhibitor, partial curve]"

row,SMILES,Potency
1,CC(CNC(=O)CCc1nnc2ccc(N3CCC4(CC3)OCCO4)nn12)c1ccccc1 (stereo unspecified),"inconclusive [inhibitor, single point]"
2,COc1ccccc1NS(=O)(=O)c1ccc(/C=C/C(=O)N2CCN(C(C)=O)CC2)cc1,"inconclusive [inhibitor, single point]"
3,CCC(=O)N1CCN(c2ccc(NC(=O)c3cc4ccccc4o3)cc2Cl)CC1,"inconclusive [inhibitor, full curve]"
4,Cc1ccc(S(=O)(=O)N(C)c2ccc(C(=O)Nc3ccc(C)cn3)cc2)cc1,active: 11.7 µM
5,Cc1ccc(C)c(NC(=O)CCCCCN2C(=O)[C@@H]3Cc4ccccc4CN3C2=O)c1,"inconclusive [inhibitor, partial curve]"
6,O=C(CCc1nnc2ccc(N3CCCCC3)nn12)NCC1CCN(Cc2ccc(F)cc2)CC1,"inconclusive [inhibitor, partial curve, poor fit]"
7,Cc1cc(NC(=O)CSc2nc(C3CCCCC3)nc3ccccc23)no1,"inconclusive [inhibitor, single point]"
8,COc1ccc(S(=O)(=O)N2CCN(S(=O)(=O)c3c(F)cccc3F)CC2)cc1,"inconclusive [activator, partial curve]"
9,C#CC[N+](C)(C)C(C#Cc1ccccc1)CC=C (stereo unspecified),active: 9.28 µM
10,CC(C)NC(=O)COC(=O)c1ccccc1CSC1=NCCS1,"inconclusive [inhibitor, single point]"
11,CC1=C(C(=O)OC2CCCC2)C(c2coc3ccccc3c2=O)C2=C(CC(C)(C)CC2=O)N1 (stereo unspecified),active: 4.15 µM
12,COc1ccc(OC)c(C(c2nnnn2CCc2ccccc2)N2CCN(c3ccccc3)CC2)c1 (stereo unspecified),active: 9.28 µM
13,Oc1ccc(N=Nc2ccc3c(c2)OCCO3)c2cccnc12,active: 1.04 µM
14,CCOC(=O)CCCNC(=O)COC(=O)[C@@H]1CCCN1S(=O)(=O)c1ccc(Cl)cc1,"inconclusive [inhibitor, single point]"
15,COc1ccc(NS(=O)(=O)c2cccc(C(=O)N/N=C/c3cn(-c4ccccc4)nc3-c3ccc(OC)cc3)c2)cc1,active: 2.33 µM
16,O=C(/C=C/c1ccccc1Cl)NCc1ccco1,"inconclusive [inhibitor, single point]"
17,CCNC(=O)NCCNC(=O)c1cc(OCC(F)(F)F)ccc1OCC(F)(F)F,active: 2.94 µM
18,CC(C)N1CCN(c2ccc(O)cc2)CC1,"inconclusive [inhibitor, single point]"
19,CCOc1ccccc1NC(=O)/C=C/c1ccccc1[N+](=O)[O-],inactive
20,Cc1nc(NC(=O)c2cc3ccccc3o2)ccc1Br,inactive
21,CCOP(=O)(c1ccccc1)C(O)c1ccc(F)cc1 (stereo unspecified),inactive
22,COC(=O)c1ccc(N)c(N=CC2=C(O)CC(C)(C)CC2=O)c1,inactive
23,Cc1nc(SCC(=O)NC(=O)NCCC(C)C)c2c(-c3cccs3)csc2n1,active: 11.7 µM
